Drawing on article PMC2757915, “The Elongator Complex Interacts with PCNA and Modulates Transcriptional Silencing and Sensitivity to DNA Damage Agents” (PLoS Genetics, 2009), this text covers binding for five molecules.

No constants are given. Whether binding was seen depends on the method and setting. Some results given as binding are weak or reduced against the parent protein; the word gives no strength.

Common to all, as to experiment: tandem affinity purification; TAP-tagged subunit purified from yeast lysate (IgG sepharose, TEV elution, calmodulin beads; buffer A 25 mM Tris pH 8.0, 100 mM NaCl), co-purified proteins on SDS-PAGE, silver staining; strains: wild type, elp3Δ, or elp3Δ with plasmids for wild type Elp3 or elp3 mutants
In one assay the target is T1, Elp3-TAP (S. cerevisiae) (UniProt Q02908).
T1 sequence: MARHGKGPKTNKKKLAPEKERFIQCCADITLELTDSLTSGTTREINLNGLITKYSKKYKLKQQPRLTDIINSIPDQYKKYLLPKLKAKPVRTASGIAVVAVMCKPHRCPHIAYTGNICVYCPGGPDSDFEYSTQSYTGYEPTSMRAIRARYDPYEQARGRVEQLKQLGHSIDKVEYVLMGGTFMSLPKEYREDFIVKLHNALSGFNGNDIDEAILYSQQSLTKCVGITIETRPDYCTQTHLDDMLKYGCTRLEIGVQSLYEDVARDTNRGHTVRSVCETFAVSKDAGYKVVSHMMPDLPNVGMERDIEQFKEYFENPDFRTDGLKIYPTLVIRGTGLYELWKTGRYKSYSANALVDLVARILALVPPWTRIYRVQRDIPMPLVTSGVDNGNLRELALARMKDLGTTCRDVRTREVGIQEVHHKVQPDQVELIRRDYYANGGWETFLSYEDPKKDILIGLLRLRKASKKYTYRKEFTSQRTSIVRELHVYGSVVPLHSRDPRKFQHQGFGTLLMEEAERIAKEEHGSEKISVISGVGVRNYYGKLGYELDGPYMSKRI

The next assay deals with T2, Elp1-TAP (S. cerevisiae) (UniProt Q06706).
T2 sequence: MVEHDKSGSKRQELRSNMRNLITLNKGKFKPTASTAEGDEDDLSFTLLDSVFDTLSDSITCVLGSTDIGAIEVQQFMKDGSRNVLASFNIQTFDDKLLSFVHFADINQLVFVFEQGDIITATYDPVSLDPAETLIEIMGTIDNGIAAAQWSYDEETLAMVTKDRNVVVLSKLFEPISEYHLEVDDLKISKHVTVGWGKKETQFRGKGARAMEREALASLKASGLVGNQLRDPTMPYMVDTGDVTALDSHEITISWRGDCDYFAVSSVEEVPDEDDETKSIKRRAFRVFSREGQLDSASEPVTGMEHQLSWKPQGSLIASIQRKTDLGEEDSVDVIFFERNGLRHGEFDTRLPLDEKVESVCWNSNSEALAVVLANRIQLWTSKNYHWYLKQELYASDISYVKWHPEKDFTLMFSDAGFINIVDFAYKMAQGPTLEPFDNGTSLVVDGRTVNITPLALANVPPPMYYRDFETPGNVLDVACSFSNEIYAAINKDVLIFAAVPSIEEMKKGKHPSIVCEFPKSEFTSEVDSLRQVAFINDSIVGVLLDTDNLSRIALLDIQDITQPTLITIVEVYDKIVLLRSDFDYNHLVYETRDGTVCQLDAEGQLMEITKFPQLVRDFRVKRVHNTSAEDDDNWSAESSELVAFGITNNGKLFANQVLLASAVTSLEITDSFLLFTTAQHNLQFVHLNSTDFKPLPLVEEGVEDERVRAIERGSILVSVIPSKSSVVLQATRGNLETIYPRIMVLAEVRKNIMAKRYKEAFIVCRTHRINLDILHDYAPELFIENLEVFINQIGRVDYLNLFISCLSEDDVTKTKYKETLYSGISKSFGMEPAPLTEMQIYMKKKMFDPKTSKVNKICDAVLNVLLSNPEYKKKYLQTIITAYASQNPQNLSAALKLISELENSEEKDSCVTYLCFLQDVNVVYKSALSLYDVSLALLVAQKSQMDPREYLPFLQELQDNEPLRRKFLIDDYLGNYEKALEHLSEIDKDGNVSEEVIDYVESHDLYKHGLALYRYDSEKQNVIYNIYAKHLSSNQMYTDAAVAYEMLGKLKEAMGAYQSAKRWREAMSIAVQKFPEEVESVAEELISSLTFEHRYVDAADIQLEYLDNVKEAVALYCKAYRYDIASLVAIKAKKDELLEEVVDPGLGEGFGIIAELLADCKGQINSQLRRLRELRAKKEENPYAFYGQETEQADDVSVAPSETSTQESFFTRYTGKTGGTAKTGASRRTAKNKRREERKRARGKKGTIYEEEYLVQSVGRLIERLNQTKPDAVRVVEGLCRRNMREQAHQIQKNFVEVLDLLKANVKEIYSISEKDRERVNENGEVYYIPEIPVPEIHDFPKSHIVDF

In another assay the target is T3, Elp5-TAP (S. cerevisiae) (UniProt P38874).
T3 sequence: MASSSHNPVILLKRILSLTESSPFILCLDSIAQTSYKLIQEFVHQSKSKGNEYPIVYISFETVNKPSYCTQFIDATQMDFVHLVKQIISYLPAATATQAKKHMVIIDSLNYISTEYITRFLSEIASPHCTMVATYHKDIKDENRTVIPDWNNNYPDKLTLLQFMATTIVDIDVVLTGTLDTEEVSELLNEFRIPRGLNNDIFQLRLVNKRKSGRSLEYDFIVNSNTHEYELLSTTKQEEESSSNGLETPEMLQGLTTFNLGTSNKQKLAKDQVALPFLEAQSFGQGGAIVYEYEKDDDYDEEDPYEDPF

In another assay the target is T4, Elp2-TAP (S. cerevisiae) (UniProt P42935).
T4 sequence: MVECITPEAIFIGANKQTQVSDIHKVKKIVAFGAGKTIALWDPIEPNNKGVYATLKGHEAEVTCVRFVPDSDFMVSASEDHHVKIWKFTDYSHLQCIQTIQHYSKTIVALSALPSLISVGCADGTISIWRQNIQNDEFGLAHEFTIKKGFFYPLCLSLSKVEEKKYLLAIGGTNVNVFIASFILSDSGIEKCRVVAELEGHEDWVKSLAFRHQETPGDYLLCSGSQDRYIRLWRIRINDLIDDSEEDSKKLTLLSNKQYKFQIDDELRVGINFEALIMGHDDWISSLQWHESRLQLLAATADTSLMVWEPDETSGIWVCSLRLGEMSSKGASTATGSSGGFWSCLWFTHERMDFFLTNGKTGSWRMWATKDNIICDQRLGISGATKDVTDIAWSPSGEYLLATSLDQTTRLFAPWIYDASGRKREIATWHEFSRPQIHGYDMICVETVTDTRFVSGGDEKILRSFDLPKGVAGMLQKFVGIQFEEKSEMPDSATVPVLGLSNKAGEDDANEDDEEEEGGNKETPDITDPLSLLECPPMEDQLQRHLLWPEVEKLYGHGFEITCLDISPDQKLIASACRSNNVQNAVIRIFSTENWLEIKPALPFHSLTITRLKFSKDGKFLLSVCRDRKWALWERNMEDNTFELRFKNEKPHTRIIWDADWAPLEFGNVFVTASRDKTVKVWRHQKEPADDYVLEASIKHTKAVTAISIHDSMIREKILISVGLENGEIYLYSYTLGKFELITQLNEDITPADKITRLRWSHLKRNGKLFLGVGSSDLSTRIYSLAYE

B1: Elp5 (protein, UniProt P38874 1-309)
chain: MASSSHNPVILLKRILSLTESSPFILCLDSIAQTSYKLIQEFVHQSKSKGNEYPIVYISFETVNKPSYCTQFIDATQMDFVHLVKQIISYLPAATATQAKKHMVIIDSLNYISTEYITRFLSEIASPHCTMVATYHKDIKDENRTVIPDWNNNYPDKLTLLQFMATTIVDIDVVLTGTLDTEEVSELLNEFRIPRGLNNDIFQLRLVNKRKSGRSLEYDFIVNSNTHEYELLSTTKQEEESSSNGLETPEMLQGLTTFNLGTSNKQKLAKDQVALPFLEAQSFGQGGAIVYEYEKDDDYDEEDPYEDPF
B1: the binding result with Elp3-TAP (S. cerevisiae) and in the assay with Elp1-TAP (S. cerevisiae) was “binds” each time.

B2: Elp4 (protein, UniProt Q02884 1-456)
chain: MSFRKRGEILNDRGSGLRGPLLRGPPRTSSTPLRTGNRRAPGNVPLSDTTARLKKLNIADESKTKMGLDSSHVGVRPSPATSQPTTSTGSADLDSILGHMGLPLGNSVLVEEQSTTEFHSILGKLFAAQGIVHNRISDSSADKTRNGDTHVIVLSLNQMFAKELPGIYKGSRKQMKKNLISEEESKVTVQNLNETQRSTPSRYKDLKIAWKYKLADEKRLGSPDRDDIQQNSEYKDYNHQFDITTRLMPAPIASELTFIAPTQPVSTILSQIEQTIKRNDKKLIRIVIPSLLHPAMYPPKMFESSEIIGLMHGVRSLVKKYYERVVLFASISIDIITPPLLVLLRNMFDSVINLEPFNQEMTEFLERVYKSQPGKIQHGLVHILKLPVFTDRGEMRVLKSEWAFKNGRKKFEIEQWGIPVDDAEGSAASEQSHSHSHSDEISHNIPAKKTKISLDY
With B2, the binding result in the assay with Elp3-TAP (S. cerevisiae), in the assay with Elp1-TAP (S. cerevisiae) and in the assay with Elp5-TAP (S. cerevisiae) was “binds” each time.

B3: Elp6 (protein, UniProt Q04868 1-273)
chain: MGSVQRQDLVLFSDQSVLPAHFFQDSNSHNLFFITHQSCTQPLWMINALVETHVLGSPSSLNESSSSMLPSSTRSHAVLASFIHEQNYFTNSLNKLKIPSNNYNVLDFLSDFIVNNIHNKPRDKILSDVLAKFSAAIQNNPTDTIVIIEQPELLLSLVSGLTCSELNNKFITPLLRQCKVLIIVSNSDIFNIDEYDASVHSSNLQNFYKSSFIKSMINLNLNPLKTGFAKDVTGSLHVCRGGAPIATSNTSLHVVENEYLYLNEKESTKLFYR
With B3, the binding result in the assay with Elp3-TAP (S. cerevisiae), in the assay with Elp1-TAP (S. cerevisiae) and in the assay with Elp5-TAP (S. cerevisiae) was “binds” throughout.

B4: elp3-2 (protein, UniProt Q02908 1-557)
chain: MARHGKGPKTNKKKLAPEKERFIQCCADITLELTDSLTSGTTREINLNGLITKYSKKYKLKQQPRLTDIINSIPDQYKKYLLPKLKAKPVRTASGIAVVAVMCKPHRCPHIAYTGNIAVYAPGGPDSDFEYSTQSYTGYEPTSMRAIRARYDPYEQARGRVEQLKQLGHSIDKVEYVLMGGTFMSLPKEYREDFIVKLHNALSGFNGNDIDEAILYSQQSLTKCVGITIETRPDYCTQTHLDDMLKYGCTRLEIGVQSLYEDVARDTNRGHTVRSVCETFAVSKDAGYKVVSHMMPDLPNVGMERDIEQFKEYFENPDFRTDGLKIYPTLVIRGTGLYELWKTGRYKSYSANALVDLVARILALVPPWTRIYRVQRDIPMPLVTSGVDNGNLRELALARMKDLGTTCRDVRTREVGIQEVHHKVQPDQVELIRRDYYANGGWETFLSYEDPKKDILIGLLRLRKASKKYTYRKEFTSQRTSIVRELHVYGSVVPLHSRDPRKFQHQGFGTLLMEEAERIAKEEHGSEKISVISGVGVRNYYGKLGYELDGPYMSKRI
B4: the binding result in the assay with Elp2-TAP (S. cerevisiae) and in the assay with Elp5-TAP (S. cerevisiae) was “no binding” throughout.

B5: elp3-3 (protein, UniProt Q02908 1-557)
chain: MARHGKGPKTNKKKLAPEKERFIQCCADITLELTDSLTSGTTREINLNGLITKYSKKYKLKQQPRLTDIINSIPDQYKKYLLPKLKAKPVRTASGIAVVAVMCKPHRCPHIAYTGNICVYCPGGPDSDFEYSTQSYTGYEPTSMRAIRARYDPYEQARGRVEQLKQLGHSIDKVEYVLMRRTFMSLPKEYREDFIVKLHNALSGFNGNDIDEAILYSQQSLTKCVGITIETRPDYCTQTHLDDMLKYGCTRLEIGVQSLYEDVARDTNRGHTVRSVCETFAVSKDAGYKVVSHMMPDLPNVGMERDIEQFKEYFENPDFRTDGLKIYPTLVIRGTGLYELWKTGRYKSYSANALVDLVARILALVPPWTRIYRVQRDIPMPLVTSGVDNGNLRELALARMKDLGTTCRDVRTREVGIQEVHHKVQPDQVELIRRDYYANGGWETFLSYEDPKKDILIGLLRLRKASKKYTYRKEFTSQRTSIVRELHVYGSVVPLHSRDPRKFQHQGFGTLLMEEAERIAKEEHGSEKISVISGVGVRNYYGKLGYELDGPYMSKRI
As for B5, the binding entry with Elp2-TAP (S. cerevisiae) and with Elp5-TAP (S. cerevisiae) was “no binding” throughout.
